Some of the results follow.
Tests used:
Assay in all cases: glycan array binding signal (z-score within array); higher = stronger binding
Details in all cases: glycan notation: IUPAC condensed, linker removed; mutation: H84T
[1] = target: Fuc(a1-2)Gal(b1-4)GlcNAc(b1-3)Gal(b1-4)GlcNAc(b1-2)Man(a1-3)[Fuc(a1-2)Gal(b1-4)GlcNAc(b1-3)Gal(b1-4)GlcNAc(b1-2)Man(a1-6)]Man(b1-4)GlcNAc(b1-4)GlcNAc
Procedure, shortened: (§1)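 Glycan array data came from 3228 arrays in the Consortium for Functional Glycomics database, and only arrays with an available protein sequence were kept. Glycan names were put into IUPAC-condensed notation, and columns mapping to the same glycan were averaged. The binding signal is a within-array Z-score, averaged across arrays of one protein sequence run at different concentrations or buffers and across linkers. A negative Z-score can be read as non-binding.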

[2] = target: Fuc(a1-2)Gal(b1-4)GlcNAc(b1-3)Gal(b1-4)GlcNAc(b1-3)Gal(b1-4)GlcNAc
Procedure, shortened: as §1

[3] = target: Fuc(a1-2)Gal(b1-4)GlcNAc(b1-3)GalNAc
Procedure, shortened: as §1

[4] = target: Fuc(a1-2)Gal(b1-4)GlcNAc(b1-3)[Fuc(a1-2)Gal(b1-4)GlcNAc(b1-6)]GalNAc
Procedure, shortened: as §1

[5] = target: Fuc(a1-2)Gal(b1-4)GlcNAc(b1-3)[Fuc(a1-3)[Gal(b1-4)]GlcNAc(b1-6)]Gal(b1-4)Glc
Procedure, shortened: as §1

[6] = target: Fuc(a1-2)Gal(b1-4)GlcNAc(b1-6)GalNAc
Procedure, shortened: as §1

[7] = target: Fuc(a1-2)Gal(b1-4)GlcNAc6S
Procedure, shortened: as §1

[8] = target: Fuc(a1-2)Gal(b1-4)[Fuc(a1-3)]GlcNAc
Procedure, shortened: as §1

[9] = target: Fuc(a1-2)Gal(b1-4)[Fuc(a1-3)]GlcNAc(b1-2)Man(a1-3)[Fuc(a1-2)Gal(b1-4)[Fuc(a1-3)]GlcNAc(b1-2)Man(a1-6)]Man(b1-4)GlcNAc(b1-4)[Fuc(a1-6)]GlcNAc
Procedure, shortened: as §1

[10] = target: Fuc(a1-2)Gal(b1-4)[Fuc(a1-3)]GlcNAc(b1-2)[Fuc(a1-2)Gal(b1-4)[Fuc(a1-3)]GlcNAc(b1-4)]Man(a1-3)[Fuc(a1-2)Gal(b1-4)[Fuc(a1-3)]GlcNAc(b1-2)Man(a1-6)]Man(b1-4)GlcNAc(b1-4)GlcNAc
Procedure, shortened: as §1

[11] = target: Fuc(a1-2)Gal(b1-4)[Fuc(a1-3)]GlcNAc(b1-3)Gal(b1-4)[Fuc(a1-3)]GlcNAc
Procedure, shortened: as §1

[12] = target: Fuc(a1-2)Gal(b1-4)[Fuc(a1-3)]GlcNAc(b1-3)Gal(b1-4)[Fuc(a1-3)]GlcNAc(b1-3)Gal(b1-4)[Fuc(a1-3)]GlcNAc
Procedure, shortened: as §1

[13] = target: Fuc(a1-2)Gal(b1-4)[Fuc(a1-3)]GlcNAc(b1-3)GalNAc
Procedure, shortened: as §1

[14] = target: Fuc(a1-2)Gal(b1-4)[Fuc(a1-3)]GlcNAc(b1-3)[Neu5Ac(a2-6)Gal(b1-4)GlcNAc(b1-6)]Gal(b1-4)Glc
Procedure, shortened: as §1

[15] = target: Fuc(a1-2)Gal3S(b1-4)GlcNAc
Procedure, shortened: as §1

[16] = target: Fuc(a1-2)Gal6S(b1-3)GlcNAc
Procedure, shortened: as §1

[17] = target: Fuc(a1-2)Gal6S(b1-3)GlcNAc6S
Procedure, shortened: as §1

Fuc(a1-2)Gal6S(b1-4)Glc = target: Fuc(a1-2)Gal6S(b1-4)Glc
Procedure, shortened: as §1

[18] = target: Fuc(a1-2)Gal6S(b1-4)Glc6S
Procedure, shortened: as §1

Fuc(a1-2)[Gal(a1-3)]Gal = target: Fuc(a1-2)[Gal(a1-3)]Gal
Procedure, shortened: as §1

[19] = target: Fuc(a1-2)[Gal(a1-3)]Gal(b1-3)GalNAc
Procedure, shortened: as §1

[20] = target: Fuc(a1-2)[Gal(a1-3)]Gal(b1-3)GalNAc(b1-3)Gal(a1-4)Gal(b1-4)Glc
Procedure, shortened: as §1

[21] = target: Fuc(a1-2)[Gal(a1-3)]Gal(b1-3)GlcNAc
Procedure, shortened: as §1

[22] = target: Fuc(a1-2)[Gal(a1-3)]Gal(b1-3)GlcNAc(b1-2)Man(a1-3)[Fuc(a1-2)[Gal(a1-3)]Gal(b1-3)GlcNAc(b1-2)Man(a1-6)]Man(b1-4)GlcNAc(b1-4)GlcNAc
Procedure, shortened: as §1

[23] = target: Fuc(a1-2)[Gal(a1-3)]Gal(b1-3)GlcNAc(b1-2)Man(a1-3)[Fuc(a1-2)[Gal(a1-3)]Gal(b1-3)GlcNAc(b1-2)Man(a1-6)]Man(b1-4)GlcNAc(b1-4)[Fuc(a1-6)]GlcNAc
Procedure, shortened: as §1

[24] = target: Fuc(a1-2)[Gal(a1-3)]Gal(b1-3)GlcNAc(b1-3)GalNAc
Procedure, shortened: as §1

[25] = target: Fuc(a1-2)[Gal(a1-3)]Gal(b1-3)GlcNAc(b1-6)GalNAc
Procedure, shortened: as §1

[26] = target: Fuc(a1-2)[Gal(a1-3)]Gal(b1-4)Glc
Procedure, shortened: as §1

[27] = target: Fuc(a1-2)[Gal(a1-3)]Gal(b1-4)GlcNAc
Procedure, shortened: as §1

[28] = target: Fuc(a1-2)[Gal(a1-3)]Gal(b1-4)GlcNAc(b1-2)Man
Procedure, shortened: as §1

B1: Banana lectin (Musa acuminata) (protein)
chain: MNGAIKVGAWGGNGGSAFDMGPAYRIISVKIFSGDVVDGVDVTFTYYGKTETRHYGGSGGTPHEIVLQEGEYLVGMAGEVANYTGAVVLGKLGFSTNKKAYGPFGNTGGTPFSLPIAAGKISGFFGRGGKFLDAIGVYLEPLEHHHHHH
B1 was tested, and the “glycan array binding signal (z-score)” value [1] was -0.09, the “glycan array binding signal (z-score)” value [2] was -0.192 and the “glycan array binding signal (z-score)” value [3] was -0.198. The “glycan array binding signal (z-score)” value [4] was -0.169, the “glycan array binding signal (z-score)” value [5] was -0.142 and the “glycan array binding signal (z-score)” value [6] was -0.166. For the same binder, the “glycan array binding signal (z-score)” value [7] was -0.171, the “glycan array binding signal (z-score)” value [8] was -0.187 and the “glycan array binding signal (z-score)” value [9] was -0.171. For the same binder, the “glycan array binding signal (z-score)” value [10] was -0.137, the “glycan array binding signal (z-score)” value [11] was -0.146 and the “glycan array binding signal (z-score)” value [12] was -0.111. For the same binder, the “glycan array binding signal (z-score)” value [13] was -0.141, the “glycan array binding signal (z-score)” value [14] was -0.193 and the “glycan array binding signal (z-score)” value [15] was -0.115. The “glycan array binding signal (z-score)” value [16] was -0.182, the “glycan array binding signal (z-score)” value [17] was -0.179 and the “glycan array binding signal (z-score)” value (Fuc(a1-2)Gal6S(b1-4)Glc) was -0.162. For the same binder, the “glycan array binding signal (z-score)” value [18] was -0.162, the “glycan array binding signal (z-score)” value (Fuc(a1-2)[Gal(a1-3)]Gal) was -0.183 and the “glycan array binding signal (z-score)” value [19] was -0.167. The “glycan array binding signal (z-score)” value [20] was -0.178, the “glycan array binding signal (z-score)” value [21] was -0.17 and the “glycan array binding signal (z-score)” value [22] was 0.023. The “glycan array binding signal (z-score)” value [23] was 0.765, the “glycan array binding signal (z-score)” value [24] was -0.172 and the “glycan array binding signal (z-score)” value [25] was -0.142. The “glycan array binding signal (z-score)” value [26] was -0.158, the “glycan array binding signal (z-score)” value [27] was -0.178 and the “glycan array binding signal (z-score)” value [28] was -0.212.
